{"source": "the supplement of paper PMC11417369", "note": "± gives the standard deviation of the averaged measurements. Some of the results follow.", "data": [{"tested_on": "PfAP2-LT AP2 domain (GST-tagged)", "assay": "gcPBM binding intensity (ln(normalized median fluorescence intensity)); higher = stronger DNA binding", "outline": "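For binding intensity, the highest Masliner-normalised natural-log median intensity across replicate spots of either probe orientation was taken. Protein bound to the array was stained with Alexa488 anti-GST antibody and scanned at 488 nm. The protein, GST-tagged P. falciparum DNA-binding domains from E. coli at about 25 μg on average, had been applied for 1 h to an Agilent 4 × 180k array of primer-extended double-stranded 36-bp intergenic genomic probes and negative controls.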", "values": [{"sequence": "AATTTTTAGAAGAACACACACATATATATTATGACC [CACACA_site246]", "gcPBM binding intensity (ln)": "9.19 ± 0.26"}, {"sequence": "ATAGGAGAAAAAGAATGTACGTATGATGTTGAAAAT [XGTACX_site7779]", "gcPBM binding intensity (ln)": "9.19 ± 0.46"}, {"sequence": "ATTATGCACAGACACACACACACACTACTAAAAAAT [CACACA_site7252]", "gcPBM binding intensity (ln)": "10.2 ± 0.28"}, {"sequence": "AAGCATTTTTTTTAAAGCCTGTTCATCATCCTTACC [CACACA_negctrl_site129]", "gcPBM binding intensity (ln)": "8.68 ± 0.6"}, {"sequence": "AAAAAAAATAAAAATATATATATATATATATAAATA [GTGCAC_negctrl_site676]", "gcPBM binding intensity (ln)": "9.16 ± 0.43"}, {"sequence": "AAATAAATAAATAGAGTGCATATATATATATATTTT", "gcPBM binding intensity (ln)": "8.99 ± 0.41"}, {"sequence": "ATATACAAAGGATTAACACACATATTATTATAGATA [CACACA_site6966]", "gcPBM binding intensity (ln)": "8.89 ± 0.5"}, {"sequence": "CTTTTTATTTATCATACACACACAGAAAAAAAAAAA [CACACA_site7935]", "gcPBM binding intensity (ln)": "8.95 ± 0.46"}, {"sequence": "AATATATATATATATATATTTTTGTTAGAATATGGA [CACACA_negctrl_site212]", "gcPBM binding intensity (ln)": "8.78 ± 0.22"}, {"sequence": "TCTATTAATTAATATACACACATTATATATATATAT [CACACA_site8815]", "gcPBM binding intensity (ln)": "9.07 ± 0.41"}, {"sequence": "ACCGTGGGAGGACACACACACACACGCACATATATA [CACACA_site6289]", "gcPBM binding intensity (ln)": "9.99 ± 0.22"}, {"sequence": "AAATAACTTTTAAATACACACGTAAAATATATTGTG [CACACA_site9085]", "gcPBM binding intensity (ln)": "8.81 ± 0.39"}, {"sequence": "TACATTATAAATATTACACACTTTATAAAATAATAA [CACACA_site6096]", "gcPBM binding intensity (ln)": "8.56 ± 0.42"}, {"sequence": "ATAATATTTTTATGTACACACCTTAATCCTTAAAAG [CACACA_site5881]", "gcPBM binding intensity (ln)": "8.77 ± 0.38"}, {"sequence": "TTAACCACTAAAAGTACACACATATATACATATATA [CACACA_site3912]", "gcPBM binding intensity (ln)": "8.93 ± 0.37"}, {"sequence": "TCCTTTTTTTTTTATGCACACACAATTATACATTCC [CACACA_site9287]", "gcPBM binding intensity (ln)": "9.62 ± 0.4"}, {"sequence": "AAACAAAAAAGAAAAACAATGAGATAAAGAAGAGAA [CACACA_negctrl_site804]", "gcPBM binding intensity (ln)": "8.96 ± 0.5"}, {"sequence": "TTTAATTATTTATTTTGTACATATATTATATATATA [XGTACX_site5760]", "gcPBM binding intensity (ln)": "8.7 ± 0.45"}, {"sequence": "AAAAGAAAAATATTCACACATATAAATAATATATAA [CACACA_site4201]", "gcPBM binding intensity (ln)": "8.69 ± 0.53"}, {"sequence": "ATTTTTATATATATCTGTACTAAAAAAAAAAAAAAA [XGTACX_site5258]", "gcPBM binding intensity (ln)": "8.14 ± 0.32"}, {"sequence": "AGAAGTAAAAAAATAGCACACACACTAATACCAACA [CACACA_site8354]", "gcPBM binding intensity (ln)": "9.8 ± 0.27"}, {"sequence": "TATTTATATATTTGTTGTACGTATTTATATATTCTT [XGTACX_site3622]", "gcPBM binding intensity (ln)": "8.93 ± 0.47"}, {"sequence": "TTATATTAATATTATATTTAAAAATAAAATATAAAT [TGCATGCA_negctrl_site79]", "gcPBM binding intensity (ln)": "8.11 ± 0.34"}, {"sequence": "ATTAATTTGATTTTAATAAGAATATTTGTGGGGAAT [GTGCAC_negctrl_site198]", "gcPBM binding intensity (ln)": "8.53 ± 0.16"}, {"sequence": "TTTTCAATATATATATGCTGAATTTATAATTTGTAT [CACACA_negctrl_site1774]", "gcPBM binding intensity (ln)": "8.68 ± 0.49"}, {"sequence": "ATATTGATTTGTGGCACACATATAATATATTCCTAT [CACACA_site3046]", "gcPBM binding intensity (ln)": "8.95 ± 0.51"}, {"sequence": "TTTTATTTTTGTTGGTCCCTCATTTAAGTTAATAAA [TGCATGCA_negctrl_site465]", "gcPBM binding intensity (ln)": "8.45 ± 0.63"}, {"sequence": "TGAATAATAAAAAATACACACACATATATATATATT [CACACA_site9146]", "gcPBM binding intensity (ln)": "9.39 ± 0.24"}, {"sequence": "ACCATATAAAGTTAGGTGCATTTGTATGTATCTTAC", "gcPBM binding intensity (ln)": "8.87 ± 0.37"}, {"sequence": "TCTTGTTCGCCCTATTGTACAAACATATATTGTGAT [XGTACX_site2884]", "gcPBM binding intensity (ln)": "9 ± 0.48"}, {"sequence": "TTATTTTGATCTGGTTGTACATATAATATATAGTGG [XGTACX_site357]", "gcPBM binding intensity (ln)": "8.76 ± 0.33"}, {"sequence": "AAAAGAGAAATGGGCACACACACACCCATTATATAT [CACACA_site1530]", "gcPBM binding intensity (ln)": "9.57 ± 0.26"}, {"sequence": "ATATATACATACATATGTACATATGTAGATATATTT [XGTACX_site1230]", "gcPBM binding intensity (ln)": "9.03 ± 0.27"}, {"sequence": "ATTTTTTTTGTTTATTCTTATGTGGTTATTAAATTA [CACACA_negctrl_site1000]", "gcPBM binding intensity (ln)": "8.72 ± 0.52"}, {"sequence": "TACGTTTTAAAACACACACACAAAAAAAAAAAAAAA [CACACA_site3876]", "gcPBM binding intensity (ln)": "9.04 ± 0.4"}, {"sequence": "ATTATGAAATATCGTGCACACACGAATAATATAAGA [CACACA_site1294]", "gcPBM binding intensity (ln)": "9.15 ± 0.27"}, {"sequence": "TATTTGTTTAAATTCACACACGTATATATATTTATA [CACACA_site5651]", "gcPBM binding intensity (ln)": "9.02 ± 0.38"}, {"sequence": "TTTTTTTTGATAAGTTGTACAATGATATATATCCCT [XGTACX_site3560]", "gcPBM binding intensity (ln)": "8.77 ± 0.51"}, {"sequence": "TATATTTTATATTGGTGTACAATTTTTTTTTTTTTT [XGTACX_site4291]", "gcPBM binding intensity (ln)": "8.53 ± 0.59"}, {"sequence": "ATAGTTTAATTTATATGTACATATAATATTGATTTG [XGTACX_site7520]", "gcPBM binding intensity (ln)": "8.83 ± 0.44"}, {"sequence": "ACCCTATCTGTAACTACACACCGCATATTGTTTACT [CACACA_site5661]", "gcPBM binding intensity (ln)": "9.43 ± 0.4"}, {"sequence": "ATAAATGACAGACACACACACAAAAAAAAAAAACAA [CACACA_site2626]", "gcPBM binding intensity (ln)": "9.84 ± 0.57"}, {"sequence": "AAATATTTATATGTTACACACTGTTTATAACTTTCT [CACACA_site6752]", "gcPBM binding intensity (ln)": "9.02 ± 0.41"}, {"sequence": "TTTTTATCTTTGCTGTGTACATAAATAAAAATAACT [XGTACX_site7625]", "gcPBM binding intensity (ln)": "8.47 ± 0.42"}, {"sequence": "CTTCTGTAATTATCACGTACATATAATAATTAAAAT [XGTACX_site8973]", "gcPBM binding intensity (ln)": "8.55 ± 0.33"}, {"sequence": "CCTTTTTTTTTTTTATGTACTAAAATAAAATTAGAA [XGTACX_site5956]", "gcPBM binding intensity (ln)": "8.04 ± 0.47"}, {"sequence": "TTCTAAAATTATATAGTGCAATTATATTAATTTTTC", "gcPBM binding intensity (ln)": "8.43 ± 0.59"}, {"sequence": "ATAACAACCCAATGTTGTACATTTAAATATAACGTA [XGTACX_site7114]", "gcPBM binding intensity (ln)": "8.83 ± 0.45"}, {"sequence": "TATATATATTTATGTACACACACACCGATAAATAAA [CACACA_site4404]", "gcPBM binding intensity (ln)": "9.43 ± 0.22"}, {"sequence": "TATAACATATGACACACACACATACATACACAAAAA [CACACA_site6935]", "gcPBM binding intensity (ln)": "9.98 ± 0.17"}, {"sequence": "GCCTCATCGTAGCAGTGTACGTTTTTTTTTTTTTTT [XGTACX_site8648]", "gcPBM binding intensity (ln)": "8.92 ± 0.41"}, {"sequence": "TTTTATACATAAATATGTACGTATATATAATGAATT [XGTACX_site1337]", "gcPBM binding intensity (ln)": "8.6 ± 0.36"}, {"sequence": "ACAATTTATATTATATGTACTTAAAAAGTTCGTAAA [XGTACX_site6421]", "gcPBM binding intensity (ln)": "8.47 ± 0.27"}, {"sequence": "TTGTGTTTGAAAAAATGTACATGTGTCTTACAACAA [XGTACX_site8371]", "gcPBM binding intensity (ln)": "8.57 ± 0.44"}, {"sequence": "TTATACAGATATTTAACACACATTTTATAAAGTGCC [CACACA_site4851]", "gcPBM binding intensity (ln)": "8.9 ± 0.4"}, {"sequence": "AAAAATAAAAAAAATACATGCAATGAAACATTTATT [TGCATGCA_site263]", "gcPBM binding intensity (ln)": "8.65 ± 0.38"}, {"sequence": "TTACGCGCTTATTACACACACATACAAATAAGGATT [CACACA_site3486]", "gcPBM binding intensity (ln)": "9.36 ± 0.3"}]}]}
